Hit rate of the full screen: of about 350,000 compounds, about 31,000 (8.9%) were called active. The shares of active, inactive and inconclusive entries below differ from those in the screen. Calls follow the shape of the dose curve; as a rule, active = well fitted inhibition curve with a large enough effect; inconclusive = small, poorly fitted or top-dose-only effect; inactive = no such curve, though single readings can be large or run the other way. Where the call is inconclusive, the potency comes from a doubtful curve fit.
What follows are compounds tested against Histone-lysine N-methyltransferase EHMT2 (Homo sapiens) (UniProt Q96KQ7) (assay: qHTS Assay for Inhibitors of Histone Lysine Methyltransferase G9a). Conditions: G9a H3K9 monomethylation, AlphaScreen, 2 h; activity, negative = inhibition: at 59 µM (top of the series) unless noted.
Chain of UniProt Q96KQ7 (Q96KQ7 whole entry, looked up): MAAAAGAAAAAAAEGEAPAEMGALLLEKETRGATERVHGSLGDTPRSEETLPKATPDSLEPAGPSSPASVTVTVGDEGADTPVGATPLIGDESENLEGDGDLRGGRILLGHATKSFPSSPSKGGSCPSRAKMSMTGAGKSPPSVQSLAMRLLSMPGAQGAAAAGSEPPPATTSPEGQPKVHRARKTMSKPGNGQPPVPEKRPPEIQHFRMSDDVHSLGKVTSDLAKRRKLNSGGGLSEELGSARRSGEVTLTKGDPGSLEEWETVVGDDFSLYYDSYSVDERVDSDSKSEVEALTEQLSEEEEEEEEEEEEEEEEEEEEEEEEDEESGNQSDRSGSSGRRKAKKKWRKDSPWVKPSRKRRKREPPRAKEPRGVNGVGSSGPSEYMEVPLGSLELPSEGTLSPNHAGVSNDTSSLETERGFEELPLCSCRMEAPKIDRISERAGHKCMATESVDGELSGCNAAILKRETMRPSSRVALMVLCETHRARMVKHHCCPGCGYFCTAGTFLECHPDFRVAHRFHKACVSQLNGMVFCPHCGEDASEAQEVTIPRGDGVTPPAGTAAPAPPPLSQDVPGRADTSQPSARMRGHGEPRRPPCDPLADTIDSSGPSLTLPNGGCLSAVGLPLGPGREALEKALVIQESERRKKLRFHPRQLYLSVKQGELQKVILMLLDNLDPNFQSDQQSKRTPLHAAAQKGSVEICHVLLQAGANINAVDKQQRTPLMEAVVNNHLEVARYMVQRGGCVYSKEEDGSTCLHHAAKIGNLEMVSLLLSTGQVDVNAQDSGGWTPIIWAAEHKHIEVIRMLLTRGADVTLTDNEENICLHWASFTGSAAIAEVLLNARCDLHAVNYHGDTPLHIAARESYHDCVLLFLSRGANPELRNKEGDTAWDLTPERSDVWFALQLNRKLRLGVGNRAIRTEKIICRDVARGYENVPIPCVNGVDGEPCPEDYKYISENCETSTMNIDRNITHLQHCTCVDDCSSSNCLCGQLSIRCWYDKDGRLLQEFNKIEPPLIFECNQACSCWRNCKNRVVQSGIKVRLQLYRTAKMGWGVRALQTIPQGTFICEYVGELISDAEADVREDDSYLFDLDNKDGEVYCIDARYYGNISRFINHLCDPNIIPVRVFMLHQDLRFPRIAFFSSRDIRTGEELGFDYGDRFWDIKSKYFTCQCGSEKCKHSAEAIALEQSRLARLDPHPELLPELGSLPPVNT
In short: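 Step 1: enzyme (final 20 nM) with compound, 15 min RT. Step 2: substrate peptide 500 nM and SAM 20 uM, 2 h RT. Step 3: anti-H3K9me1 antibody and AlphaScreen beads, 10 min, then plate read.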
% is scaled to controls: 0 for no effect and ±100 for the full control effect; potency is read from the fitted curve at half-maximal effect; tags tell the direction and shape of the fitted curve.
Also: nearly all actives have a fitted effect of over 75% in size.

| SMILES | Potency | activity, negative = inhibition |
| --- | --- | --- |
| CN1CCCN(S(=O)(=O)c2ccc(Cl)c(Cl)c2)CC1 | inconclusive: 44.7 µM [inhibitor, partial curve, poor fit] |  |
| Cc1ccc(S(=O)(=O)NNC(=O)CCCCC(=O)NNS(=O)(=O)c2ccc(C)cc2)cc1 | active: 44.7 µM |  |
| Cn1cccc1Cc1nnc(SCC(=O)N2CCCCCC2)n1-c1ccc(F)cc1 | active: 50.1 µM |  |
| O=C(CSc1nnc(CNc2ccc(F)cc2)n1Cc1ccccc1)NCc1ccccc1 | inactive |  |
| CC(C)c1ccc(NC(=O)Cn2cc(S(=O)(=O)N3CCN(c4ccccc4F)CC3)c3ccccc3c2=O)cc1 | inactive |  |
| COc1ccccc1NC(=O)CSc1nnc(-c2ccc(NC(C)=O)cc2)n1C | inconclusive: 17.8 µM [inhibitor, partial curve, poor fit] |  |
| CCCC(C(=O)NC1CCCC1)N(Cc1ccc(F)cc1)C(=O)c1snc(C(N)=O)c1N (configuration not stated) | inconclusive: 79.4 µM [inhibitor, single point] |  |
| COc1ccccc1NC(=O)c1c(NCc2ccc(OC)c(OC)c2OC)sc2c1CCC2 | inconclusive: 10 µM [inhibitor, partial curve] |  |
| COc1cc(/C=C/C(=O)O)cc(S(=O)(=O)Nc2ccc3[nH]c(=O)[nH]c3c2)c1OC | inconclusive: 89.1 µM [inhibitor, single point] |  |
| CC1CC(c2ccccc2)=Nc2ccccc2N1 (configuration not stated) | inconclusive: 31.6 µM [inhibitor, single point] |  |
| O=C(NC(=S)Nn1cnnc1)c1ccccc1Cl | active: 14.1 µM |  |
| Cc1nn(CC(=O)N2CCC(C)CC2)c(=O)c2cc3sccc3n12 | inactive |  |
| COc1ccc(-c2csc(N3CCN(S(=O)(=O)c4ccc5c(c4)NC(=O)CO5)CC3)n2)cc1 | inconclusive: 79.4 µM [inhibitor, single point] |  |
| NC(=O)[C@@H]1CCCNc2c(I)cc([N+](=O)[O-])cc2C(=O)N[C@@H](CCCN=C(N)N)C(=O)N[C@@H](CCCN=C(N)N)C(=O)N1 | active: 14.1 µM |  |
| CCOc1ccc(CCNC(=O)c2cn(C)c3ccc(S(=O)(=O)N4CCCCCC4)cc3c2=O)cc1OCC | inactive |  |
| Cc1cc2nc(-c3ccc(SCC(=O)N4CCN(C(=O)c5ccco5)CC4)nc3)[nH]c2cc1C | inconclusive: 7.08 µM [inhibitor, single point] |  |
| COC(=O)c1cc(NC(=O)c2cccs2)ccc1N1CCOCC1 |  | inconclusive: -83% [inhibitor] [at 12.7 µM] |
| CCCNC(=O)CCc1nnc2ccc(N3CCN(c4cccc(OC)c4)CC3)nn12 | inactive |  |
| CCCCOC(=O)c1ccc(NC(=O)c2cc3c(=O)n4cccc(C)c4nc3s2)cc1 | inactive |  |
| COc1ccc(Cl)cc1NC(=O)CSc1nnc(C2CC2)n1N | active: 79.4 µM |  |
| CCOC(=O)CC(c1ccc([N+](=O)[O-])cc1)n1c(C)ccc1C (configuration not stated) | inconclusive: 50.1 µM [inhibitor, partial curve, poor fit] |  |
| COc1ccc(NC(=O)/C(Cl)=C(/Cl)S(=O)(=O)Cc2ccccc2)cn1 | inconclusive: 22.4 µM [inhibitor, single point] |  |
| CN(CCCS(=O)(=O)[O-])c1ccc(/C=C/c2ccc3ccccc3[n+]2C)cc1 | active: 31.6 µM |  |

| SMILES | Potency | activity, negative = inhibition |
| --- | --- | --- |
| COc1cc(C)ccc1OCCOCCOc1ccc([N+](=O)[O-])cc1 | inconclusive: 0.158 µM [inhibitor, full curve, poor fit] |  |
| CC(=O)Nc1ccc(SC[C@H](Cc2ccccc2)N2CC[C@@H](O)CCC2=O)cc1 |  | inactive: 7.57% [at 2.33 µM] |
| COc1ccc2c(c1)C(SCC(=O)NCc1ccccc1)CC(C)(C)O2 (configuration not stated) | inconclusive: 89.1 µM [inhibitor, single point] |  |
| COC(=O)c1c(-c2ccccc2Cl)noc1-c1cnc(N)nc1C(F)(F)F | inactive |  |
| Cc1occc1C(=O)NNS(=O)(=O)c1ccc(Cl)cc1 | inactive |  |
| CC(C)(C)OC(=O)N1CCC(c2c(C(=O)NCCN3CCc4ccccc4C3)cnn2-c2ccc(F)cc2F)CC1 | inconclusive: 31.6 µM [inhibitor, partial curve, poor fit] |  |
| C/C=C/Cn1c(SCc2ccc(C)cc2)nc2c1c(=O)[nH]c(=O)n2C | active: 25.1 µM |  |
| COc1ccc(S(=O)(=O)c2ccccc2)cc1NC(=O)c1c(F)cccc1F | inconclusive: 89.1 µM [inhibitor, single point] |  |
| COc1ccccc1OCc1ccc(C(=O)NC(C)(C)C)o1 | inconclusive: 11.2 µM [inhibitor, partial curve] |  |
| Cc1cccc(-c2nc(C#N)c(N3CCCCCC3)o2)c1 | inconclusive: 2.24 µM [inhibitor, partial curve, poor fit] |  |
| CC(=O)NC(c1ccco1)c1cc(Cl)c2ccc(Cl)nc2c1O (configuration not stated) | inconclusive: 3.16 µM [inhibitor, partial curve, poor fit] |  |
| CCC(C)C(=O)Nc1cc(C(=O)OC)cc(C(=O)OC)c1 (configuration not stated) | inconclusive: 39.8 µM [inhibitor, partial curve, poor fit] |  |
| CCCC[C@]12Cc3cc(C#N)ccc3C(O1)c1c(c3ccccc3oc1=O)O2 | inconclusive: 1.26 µM [inhibitor, single point] |  |
| CCOc1ccc(NC(=O)N(C2CCCC2)C2CCN(C(C)=O)CC2)cc1 | inconclusive: 3.55 µM [inhibitor, partial curve, poor fit] |  |
| COc1cccc(N2CCN(CC(=O)Nc3ccccc3C(=O)NCCc3ccccc3)CC2)c1 |  | inactive: -5.39% [at 2.33 µM] |
| CC(Oc1ccc(F)cc1)C(=O)N1CCC(c2nc3ccccc3s2)CC1 (configuration not stated) | inactive |  |
| Brc1cccc(OCCOCCn2ccnc2)c1 |  | inactive: -11.4% [at 12.7 µM] |
| CC(C)Cc1ccc(CN2CCCC(NC(=O)Cn3cnnn3)C2)cc1 (configuration not stated) | inconclusive: 79.4 µM [inhibitor, single point] |  |
| CCNC(=O)c1cccc(NC(=O)C2CC(=O)N(CCc3ccccc3)C2)c1 (configuration not stated) |  | inactive: 8.14% [at 0.501 µM] |
| CC(O)CNc1ccc([N+](=O)[O-])cc1S(=O)(=O)N1CCOCC1 (configuration not stated) | inactive |  |
| O=C(NNS(=O)(=O)c1ccccc1[N+](=O)[O-])c1cccc(Cl)c1 | inconclusive: 89.1 µM [inhibitor, single point] |  |
| Cc1cc(C)nc(NCC(O)CNc2ccccc2C)n1 (configuration not stated) | inactive |  |
| O=S(=O)(NC1CC1)c1ccc(S(=O)(=O)N2CCc3ccccc32)cc1 | inconclusive: 89.1 µM [inhibitor, partial curve, poor fit] |  |

| SMILES | Potency | activity, negative = inhibition |
| --- | --- | --- |
| CCCCN(CCCC)CCNC(=O)c1ccc2nc(-c3ccccc3NC(C)=O)c(=O)[nH]c2c1 | inconclusive: 89.1 µM [inhibitor, partial curve, poor fit] |  |
| COc1ccc(/C=N/N=C2/NC(=O)C(CC(=O)O)S2)cc1OCc1ccccc1Cl (configuration not stated) | inactive |  |
| COC(=O)c1ccc(CN2C(=O)c3ccccc3C2=O)cc1 | inactive |  |
| O=C1COc2ccc(S(=O)(=O)Nc3ccc4c(c3)OCO4)cc2N1 | inconclusive: 89.1 µM [inhibitor, single point] |  |
| CC1S/C(=C(\C#N)C(=O)NCc2ccco2)N(Cc2ccco2)C1=O (configuration not stated) | inconclusive: 39.8 µM [inhibitor, single point] |  |
| CC(C)N(C(C)C)S(=O)(=O)c1ccc(NN)nc1 |  | inactive: 3.29% [at 12.7 µM] |
| CCOC(=O)c1c(C)n(-c2ccccc2)c2ccc(O)c(CN(C)C)c12 | inconclusive: 12.6 µM [inhibitor, full curve, poor fit] |  |
| C[C@@H](NCCCc1cccc(C(F)(F)F)c1)c1cccc2ccccc12 | inconclusive: 1.26 µM [inhibitor, partial curve, poor fit] |  |
| Cc1cc(Nc2ccc(F)cc2Cl)n2nc(C)nc2n1 | inconclusive: 89.1 µM [inhibitor, single point] |  |
| Cc1ccsc1/C=c1\sc2ncnn2c1=O | inconclusive: 31.6 µM [inhibitor, single point] |  |
| COC(=O)COC(=O)c1ccc(Oc2nc(OC)nc(N(C)C)n2)cc1 | inconclusive: 25.1 µM [inhibitor, single point] |  |
| O=C(NCc1ccco1)c1ccc(Cn2c(=O)c3ccccc3n(Cc3cccc(Cl)c3)c2=O)cc1 | inconclusive: 89.1 µM [inhibitor, single point] |  |
| COc1ccccc1Oc1nc2ccccn2c(=O)c1/C=C(\C#N)C(=O)Nc1c(C)n(C)n(-c2ccccc2)c1=O | inconclusive: 89.1 µM [inhibitor, partial curve, poor fit] |  |
| O=C(CSc1ncccn1)N1CCN(Cc2ccccc2)CC1 | inconclusive: 39.8 µM [inhibitor, single point] |  |
| O=C(Nc1ccc2nc(SCC(=O)N3CCOCC3)sc2c1)c1cccc(Cl)c1 | inactive |  |
| CCCCc1ccc(/C=C2\C(=O)c3ccccc3C(O)=C2C(=O)OCC)cc1 | active: 6.31 µM |  |
| Cc1nnc(SCC(=O)c2cc(C)n(-c3ccc4c(c3)OCO4)c2C)s1 | inconclusive: 89.1 µM [inhibitor, single point] |  |
| CN1CCN(S(=O)(=O)c2ccc(N3CCN(c4ccc(O)cc4)CC3)c([N+](=O)[O-])c2)CC1 | active: 7.94 µM |  |
| CCOc1ccc(NC(=O)CN(C)C(=O)c2cc(C)on2)cc1OCC | inconclusive: 44.7 µM [inhibitor, partial curve, poor fit] |  |
| CCCCN1C(=O)C(=O)NC[C@@H]1C(C)CC (some centres not stated) |  | inactive: 44.8% [at 12.7 µM] |
| CN(Cc1cn[nH]c1-c1ccc(-c2ccccc2)cc1)CC1CCOCC1 | inactive |  |

From PubChem BioAssay AID504332 (National Center for Advancing Translational Sciences (NCATS), 2011)
